Measurements published in PMC13083723 (Patterns, 2026).
About 190 (3.5%) of roughly 5,400 compounds showed an effect of 50% or more. This is one part of the list.

Tested on: Vero-E6
Experiment: primary screen, phospholipidosis by LipidTOX staining; higher = more effect of the substance
Conditions: 10 µM
Method: To measure drug-induced PLD in Vero-E6 cells, we used the HCS LipidTOX Red Phospholipidosis Detection Reagent (Invitrogen, #H34351), which is non-toxic to cell growth and remains well retained after aldehyde fixation. In this setup, compounds (at 10 μM concentration) and controls (amiodarone: 10 μM concentration; DMSO: 0.1 v/v %) were added to clear-bottom, 384-well plates (PhenoPlate 384-well, black, optically clear flat bottom, tissue-culture treated, Revvity #6057302) using the Echo Liquid Handler (Labcyte).

Structure (SMILES)	result_ITMP [%]
COc1cc(/C=C/C(=O)N2CCN(CC(=O)N3CCCC3)CC2)cc(OC)c1OC	-8.1
CCCCCCCCCCCCCCCCCCOP(=O)([O-])OC1CC[N+](C)(C)CC1	0.66
O=C(Nc1ccc(OC(F)(F)F)cc1)c1sccc1NCc1ccnc2ccccc12	-11.3
CC(=O)c1ccc(S(=O)(=O)NC(=O)NC2CCCCC2)cc1	4.62
O=C(c1cccc(Br)c1)N1CCC(N2CCCC2)CC1	-11.1
Cc1c(-c2ccnn2C)cc(C(=O)NCc2ccc(S(C)(=O)=O)cn2)c(=O)n1-c1cccc(C(F)(F)F)c1	0.22
CCOc1ccc(/C=C2\NCCc3cc(OCC)c(OCC)cc32)cc1OCC	16.1
CCSC(=N)N	-3.01
Cc1nnc(-c2ccc3occ(-c4ccc(S(C)=O)cc4)c3c2)o1 (stereo not shown)	-0.99
O=Cc1ccc(CO)o1	-2.91
C=CCN1CCC23c4c5ccc(O)c4O[C@H]2C(=O)CC[C@@]3(O)[C@H]1C5	-3.91
COC(=O)c1cnn(-c2ccc(F)cc2F)c1/C=N/NC(=S)NC(C)(C)C	-1.41
Cn1cc(-c2ccc(F)c(C(F)(F)F)c2)nc1C1CCN(c2ncnc3[nH]ncc23)CC1	0.1
CCOC(=O)[C@H](CCc1ccccc1)N[C@H]1CCc2ccccc2N(CC(=O)O)C1=O	30.3
COc1cccc(-n2nc(C(=O)O)cc2-c2ccc(C3CCCCC3)c(Cl)c2)c1	-0.33
Nn1cnc2cc3ccccc3cc2c1=O	-3.79
Cc1nc(NC(=O)N2CCC[C@H]2C(N)=O)sc1-c1csc(C(C)(C)C)n1	0.88
COC1=C(OC)C(=O)C(CCCCCCCCCCO)=C(C)C1=O	3.89
Cc1onc(O)c1CC(N)C(=O)O (racemic) [R4A_0004356_001 / SPE_A34716233]	0.42
CCNC(=O)N1CCN(CCCC(c2ccc(F)cc2)c2ccc(F)cc2)CC1	8.88
C[C@]12CC[C@H]3[C@@H](CC[C@@]45O[C@@H]4C(O)=C(C#N)C[C@]35C)[C@@H]1CC[C@@H]2O	-0.39
O=C(N/N=C/c1ccc([N+](=O)[O-])o1)c1cc([N+](=O)[O-])cc([N+](=O)[O-])c1O	-5.79
C[C@@H](N[C@H]1CCCC[C@@H]1NC(=O)c1ccc(Cl)cc1)c1cccc2ccccc12	37.1
NCCCC[C@H](N[C@@H](CCc1ccccc1)C(=O)O)C(=O)N1CCC[C@H]1C(=O)O	-2.35
COc1cc(C[C@H](C)[C@H](C)Cc2ccc3c(c2)OCO3)ccc1O	-2.28
CCCCOCCOc1nc(-c2ccc(C(=O)O)c(F)c2)sc1C	7.08
COc1ccc(NC(=O)c2ccc(-c3ccc(-c4noc(C)n4)cc3C)cc2)cc1OCCN(C)C	81.5
CC(C)(C)NC[C@H](O)COc1nsnc1N1CCOCC1	-1.83

Structure (SMILES)	result_ITMP [%]
Cc1ccc(C(=O)Nc2ccc(CN3CCN(C)CC3)c(C(F)(F)F)c2)cc1C#Cc1cnc2cccnn12	11.4
C=C(c1ccccc1OCc1cccc(Cl)c1)n1ccnc1	2.27
c1ccc2c(c1)CCC[C@H]2Nc1nc2ccccc2[nH]1	-0.25
O=C(O)Cc1ccc(OCc2ccccc2)c(Cl)c1	2.22
C[C@@]12CCc3occc3[C@H]1CC[C@@]13C[C@@H](CC[C@H]12)[C@@](O)(CO)C3	-0.51
Cc1cc(OCCN2CCOCC2)nn1-c1ccc2ccccc2c1	-0.96
COc1cc(OC)c2c(=O)[nH]c(-c3cc(C)c(OCCO)c(C)c3)nc2c1	-4.9
COc1cccc(NC(=O)/C=C/c2ccc(Cl)cc2)c1	-3.37
O=C1CSC(c2ccccc2Cl)c2cc(Cl)ccc2N1 (stereo not shown)	-3.44
CCCn1c(=O)c2nc(C3CCCC3)[nH]c2n(CCC)c1=O	9.14
FC(F)(F)c1ccccc1-n1ccnc1	-0.85
O=C(c1cccc(Cl)c1F)N1CCN(Cc2cccc(Nc3nccs3)n2)CC1	2.88
CC(C)[C@H]1C(=O)N[C@@H](CCCNC(=N)N)C(=O)NCC(=O)N[C@@H](CC(=O)O)C(=O)N[C@H](Cc2ccccc2)C(=O)N1C	-13.7
C[C@@H]1O[C@@H](Oc2c(-c3cc(O)c(O)c(O)c3)oc3cc(O)cc(O)c3c2=O)[C@H](O)[C@H](O)[C@H]1O	-3.84
O=C1CN2Cc3c(ccc(Cl)c3Cl)N=C2N1	-4.32
COCCN1CCN(Cc2ccc(-c3n[nH]c4c3C(=O)c3c(NC(=O)NN5CCOCC5)cccc3-4)cc2)CC1	-0.74
CC(CN)CC(=O)O (stereo not shown)	-2.76
NC(N)=Nc1nc(CSCC/C(N)=N\S(N)(=O)=O)cs1	-2.2
CC(C)C[C@H](NC(=O)[C@@H](Cc1c[nH]c2ccccc12)NC(=O)[C@H](Cc1ccc(O)cc1)NC(=O)[C@H](CO)NC(=O)[C@H](Cc1c[nH]c2ccccc12)NC(=O)[C@H](Cc1cnc[nH]1)NC(=O)[C@@H]1CCC(=O)N1)C(=O)N[C@@H](CCCN=C(N)N)C(=O)N1CCC[C@H]1C(=O)NCC(N)=O	-3.38
COC(=O)C1=CCCN(C)C1	-1.97
CN(C)Cc1c(C(=O)NCCOc2ccc(C(=O)NO)cc2)oc2ccccc12	-1.46
CC(C)NCC(O)COc1ccc(COCCOC(C)C)cc1 (stereo not shown)	-3.87
C=C(C)[C@@H]1[C@H]2OC(=O)[C@H]1[C@]1(O)C[C@H]3O[C@]34C(=O)O[C@H]2[C@]14C	-3.71
Fc1ccc(C(OCCN2CCN(CCCc3ccccc3)CC2)c2ccc(F)cc2)cc1	24.8
Cc1cc(C)c(N(Cc2ccccc2)S(=O)(=O)c2ccc(OCCNC(=O)c3cc4ccccc4o3)cc2)c(C(=O)NO)c1	-1.97
CN1CC[C@H](c2c(O)cc(O)c3c(=O)cc(-c4ccccc4Cl)oc23)[C@H](O)C1	1.91
CC(C)n1nc(C#Cc2ccccc2)c2c(N)ncnc21	1.2
